Laboratory results from article PMC4336329 (PLoS ONE, 2015).
The whole screen tested about 310,000 compounds, of which about 14,000 (4.5%) showed an effect of 50% or more. The effect is printed as a negative number. Some of the results follow.

molecular target: human ether-à-go-go-related gene (hERG) potassium channel (human, UniProt Q12809); experiment: primary screen, population patch clamp on CHO cells stably expressing hERG
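Further: peak tail current of the secondary pulse compared with the same well before compound.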

Chain of human ether-à-go-go-related gene (hERG) potassium channel (Q12809 whole entry, looked up): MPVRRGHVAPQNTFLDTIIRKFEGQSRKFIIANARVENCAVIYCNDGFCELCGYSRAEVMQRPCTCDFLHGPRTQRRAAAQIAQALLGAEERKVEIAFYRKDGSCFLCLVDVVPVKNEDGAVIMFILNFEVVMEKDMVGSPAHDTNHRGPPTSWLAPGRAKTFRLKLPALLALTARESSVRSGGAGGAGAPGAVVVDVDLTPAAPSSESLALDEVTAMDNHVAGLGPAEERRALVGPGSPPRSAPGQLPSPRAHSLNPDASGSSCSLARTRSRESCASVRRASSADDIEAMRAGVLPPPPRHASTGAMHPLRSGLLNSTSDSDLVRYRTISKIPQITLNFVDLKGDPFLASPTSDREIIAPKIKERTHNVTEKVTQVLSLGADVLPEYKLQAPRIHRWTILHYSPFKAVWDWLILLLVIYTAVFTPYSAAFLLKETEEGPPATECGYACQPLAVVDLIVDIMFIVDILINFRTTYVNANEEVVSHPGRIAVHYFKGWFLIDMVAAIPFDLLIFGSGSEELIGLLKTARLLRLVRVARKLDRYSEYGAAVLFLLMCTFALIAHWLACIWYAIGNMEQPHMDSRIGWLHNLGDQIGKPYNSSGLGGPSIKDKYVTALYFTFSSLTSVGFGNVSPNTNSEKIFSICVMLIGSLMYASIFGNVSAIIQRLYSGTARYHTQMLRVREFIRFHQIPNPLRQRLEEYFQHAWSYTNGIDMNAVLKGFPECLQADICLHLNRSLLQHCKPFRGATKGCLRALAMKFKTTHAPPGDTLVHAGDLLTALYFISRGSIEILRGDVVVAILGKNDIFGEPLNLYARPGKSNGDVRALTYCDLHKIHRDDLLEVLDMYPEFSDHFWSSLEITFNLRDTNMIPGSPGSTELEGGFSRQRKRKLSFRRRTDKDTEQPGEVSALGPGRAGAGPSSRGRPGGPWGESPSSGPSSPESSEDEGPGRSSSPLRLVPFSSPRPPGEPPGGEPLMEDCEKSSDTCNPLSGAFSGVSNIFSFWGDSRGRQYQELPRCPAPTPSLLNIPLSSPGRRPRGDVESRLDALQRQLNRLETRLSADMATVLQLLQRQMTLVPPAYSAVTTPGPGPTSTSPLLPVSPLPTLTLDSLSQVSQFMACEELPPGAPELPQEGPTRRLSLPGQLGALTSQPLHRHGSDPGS

Compound | hERG current change (%, negative = inhibition) at 10uM [%]
O=C(NCc1ccc2c(c1)OCO2)C1CCCN(S(=O)(=O)c2cccc3nonc23)C1 (centres unmarked) | -1.06
CN(C)/C=N/NC(=O)c1ccccc1Cl | 23.8
CCC1CCCCN1CCCNC(=O)CSc1nc2nc(C)c(Cc3ccccc3)c(C)n2n1 (centres unmarked) | -34.2
Cc1onc(C(=O)N2CCC(C(N)=O)CC2)c1-c1ccccc1Cl | 17.6
Cc1cccc(CSc2nnc(Cn3c(=O)sc4ccccc43)n2C)c1 | -37.9
O=C(Nc1cccc(S(=O)(=O)c2cccc(NC(=O)C3CC3)c2)c1)C1CC1 | -6.06
CCN(CC)C(=O)C1CCN(C(=O)c2oc3ccc(C)cc3c2C)CC1 | -6.34
O=C(CSc1nc2[nH]ncc2c(=O)n1-c1ccccc1Br)NCc1ccccc1Cl | -27.8
Cc1noc(C)c1S(=O)(=O)Nc1ccccc1Cl | 13.5
CCOC(=O)C(Sc1ncn[nH]1)c1ccccc1 (centres unmarked) | -3.76
COc1ccc(NC(=O)c2cc(-c3cccs3)on2)cc1 | 5.59
O=C(CC1C(=O)NCCN1C(=O)c1ccc(F)cc1)OCc1ccccc1 (centres unmarked) | 1.07
O=C(CC(Sc1ccc(Br)cc1)C(=O)O)c1ccc(F)cc1 (centres unmarked) | 17.1
CCOC(=O)C(C(C)=O)c1c(Br)c(O)c(O)c2c(C(=O)c3ccc(C)cc3)coc12 (centres unmarked) | 1.77
CCN1C(=O)[C@H]2[C@@H](c3ccc(OC)cc3)N3C(=O)CN(Cc4ccccc4)C(=O)[C@@]3(C)[C@H]2C1=O | 18.6
Cc1cccc([C@@H]2[C@@H]3C(=O)N(Cc4ccccc4)C(=O)[C@@H]3[C@]3(CC(C)C)C(=O)N(c4cccc(F)c4)C(=O)N23)c1 | 6.63
O=C(Nc1ccc(Cl)c(S(=O)(=O)N2CCCCC2)c1)c1cccnc1 | -21.5
CCOC(=O)c1cc2c(=O)n3ccccc3nc2n(CCCOC)c1=NC(=O)C(C)(C)C | -7.42
CN(C)C(CNC(=O)CN1C(=O)NC2(CCCC2)C1=O)c1ccccc1 (centres unmarked) | 0.638
CCc1nc(C)ccc1OCC(=O)N(CC)CC.O.O=C(O)C(=O)O | -30.9
CCOc1ccc2nc(-c3cc(NC(C)=O)ccc3O)sc2c1 | 25
CC(C)CCOP(=O)(c1ccc(N(C)C)cc1)C(O)c1ccccn1 (centres unmarked) | -3.97

Compound | hERG current change (%, negative = inhibition) at 10uM [%]
CCCNC(=O)CN1C(=O)NC(CCc2ccccc2)C1=O (centres unmarked) | 22.1
Cc1c(CCO)c(=O)[nH]n1S(=O)(=O)c1ccc(Cl)cc1Cl | 1.33
COC(=O)CN(c1nc(C)c(Br)c(OC)n1)S(=O)(=O)c1ccccc1 | 7.97
N#CC1=C(c2ccc(-c3ccccc3)cc2)COC1=O | -15.1
CCN(CC)S(=O)(=O)c1cc(C(=O)OCC(=O)NC2CCCc3ccccc32)ccc1C (centres unmarked) | -27.5
COCCCNc1nc2ccccc2nc1NS(=O)(=O)c1cc(Cl)ccc1Cl | 10.6
Cc1ccc(S(=O)(=O)Cc2ccc(C(=O)NCc3cccs3)o2)cc1 | -7.53
Cc1ccc(-n2c(C)cc(/C=C3\C(=O)NC(=O)N(C)C3=O)c2C)cc1C | 4
O=C(COC(=O)c1ccc(S(=O)(=O)N2CCCC2)cc1)NCc1cccs1 | -1.99
Cc1cccc(OCCCC(=O)Nc2ccc(S(N)(=O)=O)cc2)c1C | 10.8
Cn1sc(NC(=O)c2ccccc2)nc1=O | -16.4
CCn1c(C(C)NC(=O)c2cccc(C)c2)n[nH]c1=S (centres unmarked) | -28
O=C(NCCc1c[nH]c2ccccc12)C(=O)NCC1OCCN1S(=O)(=O)c1ccccc1 (centres unmarked) | -8.58
CC1CCC(NS(=O)(=O)c2ccc3c(c2)n(C)c(=O)c(=O)n3C)CC1 (centres unmarked) | -34.6
O=C(O)CSc1ncccn1 | 2.16
O=C(NCc1ccncc1)C(=O)Nc1ccc2c(c1)OCO2 | 12.8
CCOC(=O)n1c(=O)n(Cc2ccccc2)c2ccccc21 | -9.45
COc1ccccc1NC(=O)/C(C#N)=C/c1c(C)nn(-c2ccc(F)cc2)c1Cl | -7.24
O=C(c1cc(-c2ccccc2)on1)N1CCN(C(=O)c2ccco2)CC1 | -40.9
COc1ccc(C)cc1Nc1nc(-c2ccccc2O)nc2ccccc12 | 18.1
CC1=C(C(N)=O)C(c2ccccn2)n2nc(SCc3ccccc3Cl)nc2N1 (centres unmarked) | -0.969
CN(C)c1nc(Oc2ccc(C(=O)OCC(=O)Nc3ccccc3)cc2)nc(N(C)C)n1 | -2.65

Compound | hERG current change (%, negative = inhibition) at 10uM [%]
COc1ccc(CCNC(=O)CSc2nnc(CNC(=O)c3cc(OC)c(OC)c(OC)c3)o2)cc1OC | 11.7
N#CC1=C(N2CCCCC2)c2cc3c(n2C1=O)CCCC3 | -2.08
Cc1ccc(NC(=O)C2CCCN(S(=O)(=O)c3ccc4[nH]c(=O)ccc4c3)C2)cc1C (centres unmarked) | -12.2
O=CN1CCN(C(=O)COc2ccc(Cl)cc2Br)CC1 | -20.3
COc1cccc(Nc2cc(C)nc3ccccc23)c1 | -73.1
O=C(Nc1ccccc1)C1=C[C@H](c2ccccc2)C[C@H](OCCCCO)O1 | -17.4
NC(=S)NNC(=O)c1cc(C(F)(F)F)cc(C(F)(F)F)c1 | 15.7
COc1ccc(CCNC(=O)CSc2nc(-c3ccc(OC)c(OC)c3)ccc2C#N)cc1 | -20.5
COc1ccc(C(=O)Nc2cc(C(=O)NCCc3ccccc3)ccc2Cl)cc1 | -5.52
CSc1nsc(SCC(=O)Nc2nc3ccc(C)cc3s2)n1 | 25.8
C=C(C(=O)O)C(CCCCCC)C(=O)O (centres unmarked) | 2.31
C/C(=N\NC(=O)c1cccc(C)c1)c1ccc(N2CCOCC2)cc1 | -4.66
Cc1ccc(S(=O)(=O)Nc2ccc3cn[nH]c3c2)c(C)c1 | -18.1
CCN(CC)CCN(C(=O)CCS(=O)(=O)c1ccccc1)c1nc2cc(C)cc(C)c2s1.Cl | 9.19
O=C(CCN1CCCCC1)N/N=C/c1ccc(Br)cc1 | -77.8
O=C(Nc1ccccc1N1CCN(c2ccc(F)cc2)CC1)c1ccccc1 | -17.8
O=C(COC(=O)CCc1nc2ccccc2c(=O)[nH]1)NCc1ccc(F)cc1 | 11.6
Cn1c(SCC(=O)NCCN2C(=O)CSC2=O)nc2ccccc2c1=O | -2.05
O=C(NN=C1CCCCCC1)c1ccc(Br)o1 | 5.46
COc1ccc(C2C(C(=O)OC3CCCCC3)=C(C)Nc3nnnn32)c(OC)c1OC (centres unmarked) | -8.23
CCn1c(CSc2nc3ccccc3s2)nnc1SCC(=O)c1ccc(O)c(O)c1 | 17.8
COc1cccc(C(=O)NC2CCN(CC(=O)Nc3ccccc3Cl)CC2)c1 | -55.4

Compound | hERG current change (%, negative = inhibition) at 10uM [%]
COc1ccccc1C(=O)N/N=C/c1ccc(Cl)s1 | -16.1
CC(O)(CS(=O)(=O)c1cccc(C(F)(F)F)c1)C(=O)Nc1cccc(C(F)(F)F)c1 (centres unmarked) | -14.5
O=C(CN(CC1CCCO1)S(=O)(=O)c1ccc(S(=O)(=O)NCC2CCCO2)cc1)Nc1ccccc1 (centres unmarked) | -14.2
COC(=O)C1=C[C@@H](C(=O)OC)[C@@H]2C3=C(C(=O)[C@@]2(C)NC(=O)c2ccccc2)[C@H](c2ccccc2)[C@@H]2C(=O)NC(=O)[C@@H]2[C@@H]3C1 | 7.14
Cc1ccc(NC(=O)CCc2nc(-c3cccs3)no2)c(Br)c1 | 5.09
O=C(C[n+]1cc(Br)cc(Br)c1)c1ccc(-c2ccccc2)cc1.[Br-] | -28.4
COc1ccc(CN2CCN(c3cc(C)nc4c5c(C)cc(C)nc5nn34)CC2)cc1F | -16.8
N#Cc1cccc(NCC(=O)Nc2ccc3c(c2)OCCO3)c1 | 1.94
CCc1cc2c(=O)c(-n3cnc4ccccc43)coc2cc1O | -17.3
O=C(CCC(=O)N1CCN(c2ccccc2F)CC1)N1CCN(c2ccc(F)cc2)CC1 | -46.9
COCCCNC(=S)NNC(=S)Nc1ccc(F)cc1F | 19.2
CCn1cc(CCC(=O)O)c(C)n1 | -1.38
CN(Cc1ccccc1)C(=O)c1ccccc1NC(=O)c1ccco1 | 20
Cc1cc(=O)oc2cc(OCC3CC(c4ccccc4Cl)=NO3)ccc12 (centres unmarked) | -12.4
C/C(=N\Nc1ccc(Cl)cc1)c1ccncc1.Cl | -5.05
O=C(c1ccc(Br)o1)N(c1ccc(Br)cc1)C1C=CS(=O)(=O)C1 (centres unmarked) | -40.5
Cn1c(=NC(=O)c2ccco2)sc2ccccc21 | 11.6
CCCCN(Cc1ccco1)C(=O)Cn1ncc2c(=O)oc3ccc(C)cc3c21 | 13.2
CCOc1ccc(OCCn2c(=S)[nH]c3ccccc32)cc1 | 22.9
COc1cc(S(=O)(=O)N(C)C)ccc1F | 36.3
